We go through one molecule from article PMC4622551, “An affibody-adalimumab hybrid blocks combined IL-6 and TNF-triggered serum amyloid A secretion in vivo” (mAbs, 2014).

The test concerns the target T1, IL-6 receptor α (human, UniProt P08887 20-365).
T1 construct: IL-6 receptor α (IL-6Rα); bought protein captured on the plate by an anti-IL-6Rα antibody; For this first ELISA it says only 'IL-6Rα (RnD Systems)'; also called IL-6Rα; sIL-6Rα; source: bought: RnD Systems
T1 sequence (looked up): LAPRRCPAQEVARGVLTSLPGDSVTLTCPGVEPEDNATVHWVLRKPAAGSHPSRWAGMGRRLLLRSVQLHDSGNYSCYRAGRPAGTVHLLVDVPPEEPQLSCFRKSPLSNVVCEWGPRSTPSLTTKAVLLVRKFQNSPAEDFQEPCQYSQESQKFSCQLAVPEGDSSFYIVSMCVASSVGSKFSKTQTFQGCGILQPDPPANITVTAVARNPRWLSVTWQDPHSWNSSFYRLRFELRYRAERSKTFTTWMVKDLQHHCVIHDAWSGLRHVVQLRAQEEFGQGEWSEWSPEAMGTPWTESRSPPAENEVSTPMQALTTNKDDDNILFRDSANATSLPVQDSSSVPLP
Description: ELISA; competitive ELISA; IL-6Rα (250 ng/ml) captured on plates coated with anti-IL-6Rα antibody; bio-IL-6 at 0.615 nM pre-mixed 15 min with His6-Z proteins or tocilizumab in PBS with 0.5% casein, then 1.5 h on the plate; detected with streptavidin-HRP. To be noted: both partners purified. Background: In an ELISA, binding on a coated surface is turned into a signal by an enzyme label.

B1: biotinylated human IL-6 (ligand)
chain: not shown
modifications: biotin (Sulfo-NHS-LC-Biotin)
notes: interleukin-6 (IL-6), human; The biotinylation of Peprotech hIL-6 is described for the phage selection; The SPR and cell assays used unlabelled hIL-6 from RnD Systems; also called bio-hIL-6; bio-IL-6; source: bought: Peprotech; biotinylated with No-Weigh Sulfo-NHS-LC-Biotin and dialyzed
Consider B1, for which the binding result is “binds”.
